# PubChem BioAssay AID504706 (National Center for Advancing Translational Sciences (NCATS), 2011)
# Among all 320,000 compounds or so, about 200 (0.062%) were called active. Inconclusive results, whose numbers are uncertain, are shown with a selection of clear calls. Calls follow the shape of the dose curve; as a rule, active = well fitted activation curve with a large enough effect; inconclusive = small, poorly fitted or top-dose-only effect; inactive = no such curve, though single readings can be large or run the other way. No potency is given beside an inconclusive call; the fits are too rough.
# Test: qHTS assay for re-activators of p53 using a Luc reporter; also: nearly all actives have a fitted effect of over 45% in size; as to activity change, positive = activation: % of control where 0% means no effect
# Conditions: H1299 p53-A138V BP100-luciferase reporter, luminescence, 24 h; series mostly up to 92.2 µM; activity change, positive = activation: at the top concentration
# In short: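 p53-null H1299 cells stably carrying temperature-sensitive p53-A138V and a BP100-luciferase reporter were pinned with compounds (4-point, 1:5 series) and held 24 hrs at 37 deg C. Luminescence was read 10 min after detection reagent.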
# Potency is read from the fitted curve at half-maximal effect; tags tell the direction and shape of the fitted curve.
Structure (SMILES),Potency,"activity change, positive = activation"
Cc1ccc(N2C(=O)CSC2c2cccs2)cc1 (stereo unspecified),"inconclusive [activator, single point]",–
N#Cc1ccc(OCC(=O)N2CCCC2=O)cc1,–,inactive: 5.97%
CC(=O)N1CCN(c2nc3ccc(Br)cc3s2)CC1,"inconclusive [activator, partial curve, poor fit]",–
Cc1ccc(N2CC(C(=O)Nc3c4c(nn3C(C)(C)C)CS(=O)(=O)C4)CC2=O)cc1 (stereo unspecified),–,inactive: -8.35%
COc1cc(C(=O)Nc2nc3ccc(C)cc3s2)ccc1OCc1c(C)noc1C,"inconclusive [activator, single point]",–
O=C(Nc1ccc(Cl)cc1)Nc1cccc(C(=O)O)c1,–,inactive: -11.1%
O=S(=O)(c1ccc(F)cc1)N1CCCN(c2nccc(C(F)(F)F)n2)CC1,–,inactive: 1.9%
COc1ccc(-c2cc3ccc(OC)cc3cn2)cc1,"inconclusive [activator, full curve, poor fit]",–
C/C(=N/NC(=O)c1ccc(C)s1)c1cccnc1,–,inactive: 27.8%
Cc1ccc(-c2ccnc(=S)[nH]2)cc1,–,inactive: 11.1%
Cc1ccc(C(=O)N/N=C\c2ccc(-c3ccc(Cl)cc3)o2)cn1,–,inactive: 2.08%
O=C(Nc1ccc2c(c1)CCC2)c1ccccc1F,"inconclusive [activator, partial curve, poor fit]",–
COc1cccc(-c2cc(C(F)(F)F)nc(N3CCOCC3)n2)c1,"inconclusive [activator, partial curve, poor fit]",–
COC(=O)c1cc(-c2cccs2)[nH]n1,–,inactive: -5.34%
C/C(=N/NC(=O)c1ccccn1)c1ccncc1,"inconclusive [activator, partial curve, poor fit]",–
Cc1cc(C)cc(NC(=O)c2ccc(CSc3nnnn3C)cc2)c1,–,inactive: -0.655%
O=C(CSc1ccc(Cl)cc1)Nc1cccc(-c2nc3ncccc3o2)c1,–,inactive: -3.42%
O=C(Nc1ccc2sccc2c1)c1cccc(N2C(=O)CCC2=O)c1,–,inactive: 8.76%
CCOC(=O)C1CCN(C(=O)/C=C/c2ccc(OC)cc2)CC1,"inconclusive [activator, full curve, poor fit]",–
Cc1cccc(OC(C)c2ccnc3nc(/N=C/N(C)C)nn23)c1 (stereo unspecified),–,inactive: -12.4%
Cc1cccc(NC(=O)CSCC(=O)Nc2cc(Cl)ccc2N2CCN(C)CC2)c1,"inconclusive [activator, partial curve, poor fit]",–
Cc1cc(=O)n(-c2ccc3ccccc3n2)[nH]1,"inconclusive [activator, full curve, poor fit]",–
Cn1c(SCc2ccccc2[N+](=O)[O-])nnc1-c1cccnc1,"inconclusive [activator, partial curve, poor fit]",–
CC(C)c1ccc(NC(=S)Nc2cccc3ccccc23)cc1,"inconclusive [activator, single point]",–

Structure (SMILES),Potency,"activity change, positive = activation"
O=S(=O)(Nc1nc2ccccc2nc1N1CCc2ccccc2C1)c1ccc(Br)cc1,"inconclusive [activator, partial curve, poor fit]",–
COc1ccc(-c2c(C#Cc3ccc(N(C)C)cc3)c3ccccc3n2C)cc1,"inconclusive [activator, partial curve, poor fit]",–
O=S(=O)(NCc1ccco1)c1ccc2c(c1)Cc1ccccc1-2,"inconclusive [activator, partial curve, poor fit]",–
Cc1occc1C(=O)NNC(=O)C1CCCC1,–,inactive: -4.38%
O=C(Nc1ccc(F)cc1)Nc1ccc2c(c1)CCC2,"inconclusive [activator, single point]",–
CC(=O)Nc1ccc(S(=O)(=O)NC2=C(N3CCN(c4ccc(F)cc4)CC3)C(=O)c3ccccc3C2=O)cc1,–,inactive: -22.3%
Cc1cccc(NC(=S)NC(C)C(c2cccs2)N2CCN(C)CC2)c1C (stereo unspecified),–,inactive: -0.478%
CCc1ccc(N2CC(C(=O)OCc3csc(CC(=O)Nc4ccccc4C)n3)CC2=O)cc1 (stereo unspecified),–,inactive: 7%
O=C(CCOc1ccccc1)Nc1ccccc1,"inconclusive [activator, single point]",–
COc1ccc(/C(O)=C2/C(=O)C(=O)N(CCN3CCOCC3)C2c2ccccn2)cc1 (stereo unspecified),"inconclusive [activator, partial curve, poor fit]",–
Cc1ccc(S(=O)(=O)N(C)c2ccc(OCC(=O)Nc3nc4ccccc4s3)cc2)cc1,–,inactive: -4.88%
CCCOC(=O)c1ccc(NC(=O)c2nc3nc(C)cc(C)n3n2)cc1,–,inactive: 0.722%
Cc1cc(SCC(=O)c2ccccc2)n2ncc(-c3ccccc3)c2n1,–,inactive: 7.5%
CCCN(CC(=O)Nc1ccccc1OC)C(=O)c1ccc2c(c1)NC(=O)C(C)S2 (stereo unspecified),"inconclusive [activator, full curve, poor fit]",–
CCOC(=O)N1CCN(Cc2cc(=O)oc3ccc4ccccc4c23)CC1,–,inactive: -5.27%
COc1ccc(NC(=S)NCCSc2ccc(Cl)cc2)c(OC)c1,–,inactive: -14.2%
Cc1ccc2c(COC(=O)c3ccccc3Cl)cc(=O)oc2c1,"inconclusive [activator, partial curve, poor fit]",–
COC(=O)c1ccc(OCc2cc(=O)n3ccsc3n2)cc1,"inconclusive [activator, full curve, poor fit]",–
O=C(c1cc(-c2ccc(O)cc2)on1)N1CCOCC1,"inconclusive [activator, partial curve, poor fit]",–
Cc1nc(NC(=O)c2ccccc2)sc1-c1csc(N)n1,"inconclusive [activator, partial curve, poor fit]",–
O=C(Nc1nccs1)c1cc(Cl)ccc1[N+](=O)[O-],–,inactive: 16.5%
Cc1cc(SCC(=O)c2cccs2)nc2ccccc12,"inconclusive [activator, partial curve, poor fit]",–
Cc1ccccc1-n1c(C)cc(/C=N/NC(=O)c2ccncc2)c1C,"inconclusive [activator, partial curve, poor fit]",–
O=C(N/N=C/C(Br)=C\c1ccccc1)c1n[nH]c2c1CCC2,"inconclusive [activator, partial curve, poor fit]",–

Structure (SMILES),Potency,"activity change, positive = activation"
COc1ccc(C(=O)N/C(=C\c2ccc3c(c2)OCO3)C(=O)Nc2cccc(C(=O)O)c2)cc1,"inconclusive [activator, single point]",–
CC(C)NC(=O)N(C)C[C@H]1Oc2ccc(NC(=O)Nc3ccccc3)cc2C(=O)N([C@@H](C)CO)C[C@@H]1C,–,inactive: 1.56%
Cc1cc(C(=O)CSc2ccc(Cl)cc2)cc(C)c1OC(=S)N(C)C,"inconclusive [activator, partial curve, poor fit]",–
O=C(NCC1CCCO1)c1cc(S(=O)(=O)Nc2ccc(Br)cc2)ccc1Cl (stereo unspecified),"inconclusive [activator, single point]",–
COc1ccc2[nH]c(N=Nc3ccccc3C)c(O)c2c1,"inconclusive [activator, partial curve, poor fit]",–
CC(=O)Nc1ccc(C2=CC(=O)CC(C)(C)C2)cc1,–,inactive: -1.23%
CC1(C)O[C@@H]2[C@H](O1)[C@@H](COS(=O)(=O)O)O[C@H]2n1ccc(=O)[nH]c1=O,"inconclusive [activator, partial curve, poor fit]",–
O=C(Nc1ccc2nc3n(c(=O)c2c1)CCCCC3)c1ccccc1Cl,"inconclusive [activator, full curve, poor fit]",–
O=C(CCSCc1cccc(Cl)c1)NCCc1ccccc1,"inconclusive [activator, full curve, poor fit]",–
CCc1cc2c(=O)c(-c3ccc4c(c3)OCCO4)coc2cc1OS(C)(=O)=O,"inconclusive [activator, full curve, poor fit]",–
Cc1ccnc2c1ccc1cccnc12,"inconclusive [activator, partial curve]",–
Cc1ccc2c(c1)N(CC(=O)Nc1ncccc1C)C(=O)C(C(C)C)O2 (stereo unspecified),"inconclusive [activator, partial curve, poor fit]",–
COc1cccc(/C=C/C(=O)OCC(=O)Nc2cc(C(F)(F)F)ccc2Cl)c1,–,inactive: 9.04%
O=C1CC(N2CCN(S(=O)(=O)c3ccccc3F)CC2)C(=O)N1c1ccc(F)cc1F (stereo unspecified),–,inactive: -7.52%
COc1ccc(N2CCN(CCCNC(=O)C3CCC(CNc4nc(=S)[nH]c5ccccc45)CC3)CC2)cc1 (stereo unspecified),–,inactive: -1.06%
O=C(C1=C(O)/C(=C/c2ccc(O)cc2)CCC1)C(F)(F)F,"inconclusive [activator, partial curve, poor fit]",–
CCOCCCN(C)C1CCN(C(=O)c2oc3ccccc3c2NC(=O)Cc2ccc(F)cc2)CC1,–,inactive: 3.64%
COc1ccc2[nH]c(-c3ccccc3)cc2c1,"inconclusive [activator, full curve, poor fit]",–
CCCCSc1ccc2nc(-c3ccc(C#N)cc3)cn2c1,"inconclusive [activator, partial curve, poor fit]",–
O=C(Nc1ccc(F)c(Cl)c1)c1nsc(Cl)c1Cl,–,inactive: 11.2%
CN(C)c1ccc(-c2nnc(-c3cccs3)o2)cc1,"inconclusive [activator, full curve, poor fit]",–
Nc1c(C(=O)Nc2ccc3c(c2)OCCO3)nnn1Cc1ccccc1,"inconclusive [activator, full curve, poor fit]",–
CC(=C/c1ccccc1)/C=C1/SC(N2CCOCC2)=NC1=O,"inconclusive [activator, partial curve, poor fit]",–
